{
  "source": "PubChem BioAssay AID1466",
  "about": "(National Center for Advancing Translational Sciences (NCATS), 2008)",
  "note": "Hit rate of the full screen: of about 200,000 compounds, about 10 (0.005%) were called active. Inconclusive results, whose numbers are uncertain, are shown with a selection of clear calls. Calls follow the shape of the dose curve; as a rule, active = well fitted inhibition curve with a large enough effect; inconclusive = small, poorly fitted or top-dose-only effect, or effect the other way, or another doubt; inactive = no such curve, though single readings can be large or run the other way. Potencies of inconclusive entries are doubtful fits and often do not repeat. Potency is read from the fitted curve at half-maximal effect; tags tell the direction and shape of the fitted curve.",
  "data": [
    {"biological_target": "Lysosomal alpha-glucosidase (Homo sapiens) (UniProt P10253)", "assay": "qHTS Assay for Inhibitors of Human alpha-Glucosidase as a Potential Chaperone Treatment of Pompe Disease;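 as to activity change, negative = inhibition: plate controls were uninhibited enzyme wells for no effect and no-enzyme background for full effect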", "conditions": "purified human GAA, 4-MU-alpha-glucoside fluorescence; activity change, negative = inhibition: at 76.9 µM (top of the series) unless noted", "outline": "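Human alpha-glucosidase, 4 nM, pre-mixed with test compounds before 400 uM 4-methylumbelliferyl substrate; 20 min room temperature at pH 5.0. Fluorescence read after pH 10 stop; AC50 values from Hill-equation fits.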", "values": [
      {"molecule": "O=C1NC(=S)N(c2ccc(Cl)cc2)C(=O)/C1=C/N1CCN(C(=O)c2ccco2)CC1", "activity change, negative = inhibition": "inconclusive: -16.6% [inhibitor]"},
      {"molecule": "O=C(c1cccn2c(=O)c3ccccc3nc12)N1CCC2(CC1)OCCO2", "Potency": "inconclusive: 44.7 µM [activator, single point]"},
      {"molecule": "CCN(CC)C(=O)N[C@H]1C[C@@H]2c3cccc4[nH]cc(c34)C[C@H]2N(C)C1", "activity change, negative = inhibition": "inconclusive: -12% [inhibitor] [at 15.4 µM]"},
      {"molecule": "COc1ccc(-c2cc(=NCCC(=O)O)c3cc(C)ccc3o2)cc1", "Potency": "inconclusive: 28.2 µM [activator, partial curve]"},
      {"molecule": "Cc1ccc(-c2nc3ccccc3c(=O)n2-c2cccc(O)c2)cc1", "Potency": "inconclusive: 0.178 µM [inhibitor, full curve, poor fit]"},
      {"molecule": "Cc1ccc(S(=O)(=O)N2CCC(C(=O)N3CCC4(CC3)OCCO4)CC2)cc1", "activity change, negative = inhibition": "inconclusive: -16.6% [inhibitor]"},
      {"molecule": "COc1cccc(C(=O)C2CCCN(Cc3ccc4nonc4c3)C2)c1", "note": "(configuration not stated)", "activity change, negative = inhibition": "inconclusive: 15.6% [activator]"},
      {"molecule": "O=c1[nH]c(=S)[nH]c(O)c1N=Nc1ccc(S(=O)(=O)N2CCc3ccccc32)cc1", "activity change, negative = inhibition": "inconclusive: -15.8% [inhibitor]"},
      {"molecule": "O=C1NC(=O)C(=C/C=C/c2coc3ccc(Br)cc3c2=O)C(=O)N1", "Potency": "inconclusive: 39.8 µM [inhibitor, partial curve]"},
      {"molecule": "O=c1[nH]c(=O)n(-c2ccc(F)cc2)c(O)c1C=NCCN1CCCCC1", "activity change, negative = inhibition": "inconclusive: 15.7% [activator]"},
      {"molecule": "Cc1cccc(OCC(=O)N2CCN(Cc3ccc([N+](=O)[O-])cc3)CC2)c1", "activity change, negative = inhibition": "inconclusive: 16.8% [activator]"},
      {"molecule": "N=C1c2ccccc2CN1NC(=O)c1ccc(Br)cc1", "Potency": "inconclusive: 11.2 µM [inhibitor, single point]"},
      {"molecule": "CN(C)C(=O)Oc1c(Cl)cc(Cl)c2cccnc12", "activity change, negative = inhibition": "inconclusive: 11.3% [activator]"},
      {"molecule": "CC(C)CCNC(=O)c1c(N)n(Cc2ccc3c(c2)OCO3)c2nc3ccccc3nc12", "Potency": "inconclusive: 17.8 µM [activator, partial curve]"},
      {"molecule": "CCCCCc1nc2ccccc2c(=O)n1-c1ccccc1[N+](=O)[O-]", "Potency": "inconclusive: 44.7 µM [inhibitor, single point]"},
      {"molecule": "c1ccc2c(c1)Nc1ccccc1S2", "activity change, negative = inhibition": "inactive: 2.4% [at 15.4 µM]"},
      {"molecule": "c1ccc(CCNCc2ccccc2)cc1", "Potency": "inconclusive: 1.12 µM [inhibitor, full curve]"},
      {"molecule": "CCCCN1C(=O)NC(=O)C2(Cc3c(nc4ccccn4c3=O)N3CCc4ccccc4C32)C1=O", "note": "(configuration not stated)", "Potency": "inconclusive: 44.7 µM [inhibitor, single point]"},
      {"molecule": "Oc1ccc(/C=N/NP(=S)(c2ccccc2)c2ccccc2)cc1", "activity change, negative = inhibition": "inactive: -8.72%"},
      {"molecule": "Cc1cc(S(=O)(=O)NCc2ccccc2)ccc1OCC(=O)N1CCN(C)CC1", "activity change, negative = inhibition": "inconclusive: -18.8% [inhibitor]"},
      {"molecule": "COCCCn1c(N)c(C(=O)NCCC(C)C)c2nc3ccccc3nc21", "Potency": "inconclusive: 50.1 µM [activator, single point]"},
      {"molecule": "COc1ccc(N2C(=O)/C(=C/C=C/c3ccccc3[N+](=O)[O-])C(=O)NC2=S)cc1", "activity change, negative = inhibition": "inactive: -2.34%"},
      {"molecule": "O=c1[nH]sc2cc(F)ccc12", "activity change, negative = inhibition": "inactive: -5.64%"},
      {"molecule": "CN(C)S(=O)(=O)c1ccc(C(=O)NNc2nc(-c3ccccc3)c3cc(Br)ccc3n2)cc1", "Potency": "inconclusive: 17.8 µM [inhibitor, partial curve]"},
      {"molecule": "Cc1cccc(OCC(=O)N2CCN(Cc3cccnc3)CC2)c1", "activity change, negative = inhibition": "inconclusive: 15.6% [activator]"},
      {"molecule": "Cc1ccc2c(Cl)cc(Cl)c(OCC(=O)N(C(C)C)C(C)C)c2n1", "Potency": "inconclusive: 39.8 µM [inhibitor, single point]"},
      {"molecule": "O=C(c1cccc(C(F)(F)F)c1)C1CCCN(Cc2ccccc2O)C1", "note": "(configuration not stated)", "activity change, negative = inhibition": "inconclusive: 9.98% [activator]"},
      {"molecule": "Cc1ccc(S(=O)(=O)CC(C)(O)C(=O)Nc2cccc(C(F)(F)F)c2)cc1", "note": "(configuration not stated)", "activity change, negative = inhibition": "inconclusive: 15.8% [activator]"},
      {"molecule": "COc1ccc(NP(=O)(Oc2ccc(Cl)cc2)Oc2ccc(Cl)cc2)cc1OC", "activity change, negative = inhibition": "inconclusive: -16.5% [inhibitor]"},
      {"molecule": "O=[N+]([O-])c1ccc(N2CCCCCC2)c2ncccc12", "activity change, negative = inhibition": "inconclusive: 13.2% [activator]"},
      {"molecule": "COc1ccc2c(c1)CC1(CN2C)C(=O)NC(=O)N(c2ccc(C)cc2)C1=O", "note": "(configuration not stated)", "activity change, negative = inhibition": "inconclusive: -17.6% [inhibitor]"},
      {"molecule": "Nc1c(C(=O)NCc2ccco2)c2nc3ccccc3nc2n1CCN1CCCCC1", "Potency": "inconclusive: 20 µM [activator, partial curve]"},
      {"molecule": "CC(C)OC(=O)c1c(N)n(CC2CCCO2)c2nc3ccccc3nc12", "note": "(configuration not stated)", "Potency": "inconclusive: 35.5 µM [activator, partial curve]"},
      {"molecule": "CCC(=O)N1CC(=O)Nc2ccc(Br)cc2C1c1ccccc1", "note": "(configuration not stated)", "activity change, negative = inhibition": "inconclusive: 19.3% [activator]"},
      {"molecule": "O=c1[nH]c(O)c(N=Nc2ccc([N+](=O)[O-])cc2)c(=O)[nH]1", "Potency": "inconclusive: 0.316 µM [inhibitor, full curve, poor fit]"},
      {"molecule": "O=c1cc(-c2ccc(O)c(O)c2)oc2c(C3O[C@H](CO)[C@@H](O)[C@H](O)[C@H]3O)c(O)cc(O)c12", "note": "(some centres not stated)", "Potency": "inconclusive: 39.8 µM [inhibitor, single point]"},
      {"molecule": "COC(=O)C1C2c3ccccc3OC1(C)N=c1s/c(=C/c3cnn(C)c3C)c(=O)n12", "note": "(configuration not stated)", "Potency": "inconclusive: 56.2 µM [inhibitor, single point]"},
      {"molecule": "Clc1cccc(N2CCNCC2)n1", "activity change, negative = inhibition": "inconclusive: 15.2% [activator]"},
      {"molecule": "Cc1cc(/C=C2\\C(=O)NC(=S)N(C)C2=O)c(C)n1C1CCCCC1", "Potency": "inconclusive: 1.78 µM [inhibitor, full curve]"},
      {"molecule": "CCC(=Nc1ccc(OC)cc1OC)c1c(O)n(C2CCCCC2)c(=O)[nH]c1=O", "Potency": "inconclusive: 15.8 µM [inhibitor, partial curve]"},
      {"molecule": "O[C@H]1[C@H](O)[C@@H](O)CN2CC[C@H](O)[C@H]12", "Potency": "active: 11.2 µM"},
      {"molecule": "N#Cc1ccccc1Cn1cc(C(=O)c2ccco2)c2ccccc21", "Potency": "inconclusive: 25.1 µM [inhibitor, single point]"}
    ]}
  ]
}
